This is one part of the list. The list includes weakly bound sequences.

In the assay the target is MaxL homodimer (UniProt P61244). The experiment in a line: universal protein-binding microarray (PBM). The settings on record: PBS-based mixture, 10 nM His-tagged protein dimer, 2% milk, 200 ng/uL BSA, 50 ng/uL salmon testes DNA, 0.02% TX-100; detection with Alexa 488 anti-His …; high values mean tight binding; most listed sequences are background and not binding sites; double strand, one strand shown.
Sequence of UniProt P61244 (P61244 whole entry): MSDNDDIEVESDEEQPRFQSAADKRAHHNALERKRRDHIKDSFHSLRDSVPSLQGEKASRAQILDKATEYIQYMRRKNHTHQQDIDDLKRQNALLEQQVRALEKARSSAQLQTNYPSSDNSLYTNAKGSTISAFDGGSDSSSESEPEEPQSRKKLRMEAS
In the case of GCCACGTA, the binding signal (normalized occupancy) worked out at 0.0823.
The same measure for GTCTCCAC: 0.0736; for AACATTCC: 0.0768.
The same measure for CGAATCGC: 0.0706; for CTTGTAAA: 0.0729.
The same measure for AGACTTCC: 0.0744.
On to AAAGATTA, for which the binding signal (normalized occupancy) amounted to 0.0727.
As for CACCGTAC, the binding signal (normalized occupancy) is 0.0762.
The same measure for GAAAAGAC: 0.0747; for CAAAACGA: 0.0687; for AACAGACC: 0.0741.
The same measure for ACAACTGG: 0.075; for AGACCATC: 0.0766.
The same measure for ACATTGAA: 0.0824.
As for CACTATTC, the binding signal (normalized occupancy) came out at 0.0749.
The same measure for GTAGCTGA: 0.0708; for ATTAGTAA: 0.0784; for TCAGCAAA: 0.0672.
The same measure for AATGGGGA: 0.0809.
Consider ACAGAGAT, for which the binding signal (normalized occupancy) is 0.0767.
The same measure for CATCTAGC: 0.0802.
The same measure for GGACGATA: 0.0773; for ACCTAAAG: 0.0652.
The same measure for AACTTGGA: 0.0689; for CAGTAAAC: 0.0746; for CGGTTCAG: 0.0693.
As for TAGCGGAA, the binding signal (normalized occupancy) stood at 0.0678.
The same measure for AGGTTCTC: 0.0859.
The same measure for AAGTGAGA: 0.0726; for GACCACGC: 0.129; for AAGAAAAA: 0.0711.
The same measure for ATGCGTAC: 0.0922; for GGCGCAAA: 0.0678.
On to AGCGGAAT, for which the binding signal (normalized occupancy) was determined as 0.0731.
The same measure for ATGCCTCG: 0.0854.
With ACAATTCG, the binding signal (normalized occupancy) is 0.0769.
The same measure for ACAATGAA: 0.0787.
The same measure for CTTTCCGC: 0.0732.
For AGCGTGTG, the binding signal (normalized occupancy) was determined as 0.0954.
For AATAAACT, the binding signal (normalized occupancy) was 0.07.
The same measure for TCGGAACA: 0.0723; for ACGCGCCC: 0.0753; for ACTTTCCT: 0.0742.
Consider GGGACCCC, for which the binding signal (normalized occupancy) amounted to 0.0741.
The same measure for CTCGTCAA: 0.0721; for CCGACCGA: 0.07; for ATCCCACC: 0.0833.
The same measure for ATACTGTC: 0.0768; for ATCGGATG: 0.0777.
The same measure for CGTGCACG: 0.123; for CACGACTC: 0.0772.
With ATTCATAC, the binding signal (normalized occupancy) was 0.0848.
The same measure for ACCGCGAA: 0.069; for CTTGTTTC: 0.077; for AAGTGGCG: 0.0736.
The same measure for AGAGGTCC: 0.07; for AAAAAGCT: 0.0692.
The same measure for GTAACGGA: 0.0708.
For the sequence GGGTCCAA, the binding signal (normalized occupancy) worked out at 0.0742.
The same measure for CAATCAGA: 0.0781.
The same measure for AGGACGGC: 0.0716; for ACGTAATG: 0.0857.
As for CCGGGATA, the binding signal (normalized occupancy) turned out to be 0.0729.
For the sequence AAACGGAG, the binding signal (normalized occupancy) is 0.0738.
The same measure for GCGACAGC: 0.0756.
The same measure for CAGATAGA: 0.0777; for CTCCGCTC: 0.0698; for ACAATCGG: 0.0707.
In the case of GACCCTGA, the binding signal (normalized occupancy) was found to be 0.0699.
The same measure for ACATACCC: 0.0816; for GGGGCAAC: 0.0732; for ATTACATC: 0.0836.
The same measure for CTAACCCA: 0.0788; for GGAGAAAA: 0.0724; for ATTTAGCC: 0.0757.
The same measure for AGAGGACG: 0.066; for AAGCACAC: 0.0823.
In the case of AAAGTGGG, the binding signal (normalized occupancy) was 0.0758.
The same measure for ATGATCGA: 0.0845; for ATTCAAAT: 0.0758; for CCTGGTTA: 0.078.
With CTCCGACA, the binding signal (normalized occupancy) turned out to be 0.0693.
The same measure for GACAAACA: 0.0813.
The same measure for CGACAATA: 0.078.
The same measure for GGGCCGAA: 0.0706; for CGTTCAGA: 0.0735.
On to CGTAGAAC, for which the binding signal (normalized occupancy) is 0.0696.
The same measure for CACAACCG: 0.0757; for CAAAAGCA: 0.0766.
The same measure for CCATAGAA: 0.0789.
The same measure for GAGCACAC: 0.0956.
On to AGTTATAT, for which the binding signal (normalized occupancy) was found to be 0.0794.
The same measure for ATGGGCAC: 0.08.
The same measure for ATAGTCTA: 0.0774; for ATGGATGA: 0.0855.
The same measure for TGTCGCAA: 0.0714; for CTCCGCGA: 0.0675.
Take TAGAAACA: the binding signal (normalized occupancy) was found to be 0.0813.
For AACGGGGT, the binding signal (normalized occupancy) is 0.0733.
The same measure for CGGCGGGA: 0.0669; for CGGCCCAA: 0.0719.
The same measure for AAACTAAG: 0.0736; for GTGGCATA: 0.0887; for CAGGAGAG: 0.0757.
The same measure for CAGAGGAG: 0.0699.
Take AATGGGAT: the binding signal (normalized occupancy) came to 0.076.
The same measure for AGCATGGG: 0.106; for CAAATATA: 0.0797; for ATCCTTCG: 0.0692.
The same measure for GGTATGGA: 0.0828.
Consider TCTAAACA, for which the binding signal (normalized occupancy) came to 0.0842.
The same measure for ACAGATGA: 0.0804; for CGTATCAA: 0.0778; for GTCTCAAA: 0.0765.
The same measure for CGTTTCTC: 0.072; for CGTCGAGC: 0.068; for AGTAGCAA: 0.0734.
The same measure for AAGGCTAG: 0.077; for GGATTTAC: 0.075.
Regarding ACCACCAC, the binding signal (normalized occupancy) turned out to be 0.0897.
The same measure for CAATCCCC: 0.08.
With CCATCCAC, the binding signal (normalized occupancy) was determined as 0.0857.
The same measure for AACATATT: 0.0801; for CGCTAGAC: 0.069; for TCGCCCCA: 0.0771.
The same measure for ACCTACGT: 0.0778; for AAGCCCAC: 0.0761.
The same measure for GGTCTGAA: 0.0729.
In the case of AGCCCGAG, the binding signal (normalized occupancy) is 0.066.
The same measure for AGTACTAC: 0.0779.
The same measure for ACTGGCAG: 0.0695.
The same measure for ATACTATA: 0.0829.
For GCAGCGTA, the binding signal (normalized occupancy) stood at 0.0733.
The same measure for AAAAGGAG: 0.0701.
For the sequence AGCAAGAC, the binding signal (normalized occupancy) stood at 0.0801.
The same measure for GCGCAAAC: 0.0713; for GGGGAGCA: 0.083.
The same measure for ATTGTTGC: 0.0736; for ATCGTTAC: 0.078.
The same measure for AACCTTGG: 0.0741; for CTCCAGCA: 0.0773.
On to CATCAATC, for which the binding signal (normalized occupancy) turned out to be 0.0848.
The same measure for CGGGAACC: 0.066; for GGCGTTGA: 0.0756.
For ATATGCCC, the binding signal (normalized occupancy) worked out at 0.0833.
For CGCGAGTA, the binding signal (normalized occupancy) worked out at 0.0769.
In the case of ATGATCAC, the binding signal (normalized occupancy) came out at 0.0825.
The same measure for ACACTGTC: 0.0754.
On to GGCTCGCA, for which the binding signal (normalized occupancy) turned out to be 0.0734.
As to ACCAGAAT, the binding signal (normalized occupancy) worked out at 0.0756.
The same measure for GCTACACC: 0.0779.
The same measure for AAAAGGGT: 0.0749; for AAGTTGCG: 0.0716; for GGACCAAA: 0.0678.
The same measure for AGCTGTCA: 0.0743; for ACATAACT: 0.0846.
For the sequence CAGCAATA, the binding signal (normalized occupancy) came out at 0.074.
For ACGGAGGA, the binding signal (normalized occupancy) is 0.0782.
As for ATCTTGCC, the binding signal (normalized occupancy) came out at 0.0712.
The same measure for CACAAGAG: 0.0792; for ATTTATTA: 0.0778; for GTTGATAA: 0.0805.
For CATGAGAA, the binding signal (normalized occupancy) came out at 0.0833.
The same measure for CGAGCGCC: 0.0651; for CCTGTTAA: 0.0803; for AACCGGAG: 0.0646.
The same measure for CGCTCGTC: 0.0684; for ACAGACAC: 0.0793; for AGTAAATC: 0.076.
The same measure for ACGATAAT: 0.0798.
As to ATTCGATA, the binding signal (normalized occupancy) came to 0.0815.
The same measure for ACTACGTA: 0.0755.

Values taken from publication PMC4242493.
